B1: Caulobacter ParB omega fusion; a variant is named by its letters at X, in order, B8GW30 (parent)
chain: MESVVVGEPGMSEGRRGLGRGLSALLGEVDAAPAQAPGEQLGGSREAPIEILQRNPDQPRRTFREEDLEDLSNSIREKGVLQPILVRPSPDTAGEYQIVAGERAWRAAQRAGLKTVPIMVRELDDLAVLEIGIIENVQRADLNVLEEALSYKVLMEKFERTQENIAQTIGKSXSHVANXMRLLXLPDEVQSYLVSGELTAXHARAIAAAADPVALAKQIIEGGLSVRETEALARKAPNLSAGKSKGGRPPRVKDTDTQALESDLSSVLGLDVSIDHRGSTGTLTITYATLEQLDDLCNRLTRGI

The results in this text go back to a collection of fitness landscapes (doi:10.1016/j.celrep.2020.107928).

The full ranking holds about 81,000 sequences; the median of “one-hybrid fitness for binding NBS DNA” is about -0.1, and the highest 2% start at about 0.36. Some of the results follow. A value given as a limit tells only on which side of the number the result lay.

In this test the parent is B1. The experiment in a line: one-hybrid fitness for binding NBS DNA (the Noc-binding site; scaled: cognate 1, non-cognate 0); higher = stronger binding. The settings on record: with NBS DNA site. Put shortly: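 On M9-minus-histidine containing 0.1 mM IPTG and 5 mM 3-AT, E. coli USO cells with a HIS3 reporter, site 19 bp from the promoter, grew 48 hours at 37°C to select Caulobacter ParB libraries randomised at four specificity codons. Plasmids from before and after were Illumina-sequenced, with three replicate libraries pooled and variants under 10 reads left out. Fitness is the log change in variant-to-wild-type read ratio, rescaled against cognate and non-cognate.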
For the variant VCAW, the “one-hybrid fitness for binding NBS DNA” value is not above 0.2.
Under EYDT stands not above 0.2; under GFRG, not above 0.2; under RYGK, not above 0.2.
The value for HCRS was not above 0.2; that for GACC was not above 0.2; that for RPMC was not above 0.2.
Regarding GQDL, the “one-hybrid fitness for binding NBS DNA” value was not above 0.2.
With FLVV, the “one-hybrid fitness for binding NBS DNA” value is not above 0.2.
As for CPHF, the “one-hybrid fitness for binding NBS DNA” value is not above 0.2.
On to QWVT, for which the “one-hybrid fitness for binding NBS DNA” value is not above 0.2.
As to RGLK, the “one-hybrid fitness for binding NBS DNA” value is not above 0.2.
Under EVNT stands not above 0.2; under GTKR, 0.255.
On to AVQE, for which the “one-hybrid fitness for binding NBS DNA” value was not above 0.2.
In the case of KRTD, the “one-hybrid fitness for binding NBS DNA” value is not above 0.2.
The value for DAQS was not above 0.2; that for TQAM was not above 0.2; that for NLAT was not above 0.2.
Consider HTCG, for which the “one-hybrid fitness for binding NBS DNA” value is not above 0.2.
The value for VRNY was not above 0.2; that for ASTT was not above 0.2.
As for LNGL, the “one-hybrid fitness for binding NBS DNA” value was not above 0.2.
Under LQYD stands not above 0.2.
In the case of HHTV, the “one-hybrid fitness for binding NBS DNA” value is not above 0.2.
Turning to ANPY, the “one-hybrid fitness for binding NBS DNA” value is not above 0.2.
For MNGG, the “one-hybrid fitness for binding NBS DNA” value is not above 0.2.
Turning to MLIC, the “one-hybrid fitness for binding NBS DNA” value is not above 0.2.
FEYF: the “one-hybrid fitness for binding NBS DNA” value is not above 0.2.
The value for GFHI was not above 0.2; that for AHRP was not above 0.2.
Consider QTCQ, for which the “one-hybrid fitness for binding NBS DNA” value was not above 0.2.
Consider ATLQ, for which the “one-hybrid fitness for binding NBS DNA” value was not above 0.2.
Under RICL stands not above 0.2; under HVHD, not above 0.2; under YCNS, not above 0.2.
Consider TKDL, for which the “one-hybrid fitness for binding NBS DNA” value is not above 0.2.
The value for LDGI was not above 0.2; that for QNKK was not above 0.2; that for RPTN was not above 0.2.
Under CKSG stands not above 0.2; under SDKV, not above 0.2.
For CSLA, the “one-hybrid fitness for binding NBS DNA” value is not above 0.2.
As to SGIG, the “one-hybrid fitness for binding NBS DNA” value is not above 0.2.
Take PRAF: the “one-hybrid fitness for binding NBS DNA” value was not above 0.2.
Under CVSV stands not above 0.2; under RDEK, not above 0.2; under SQAT, not above 0.2.
Regarding VSRL, the “one-hybrid fitness for binding NBS DNA” value is not above 0.2.
Regarding FTRA, the “one-hybrid fitness for binding NBS DNA” value is not above 0.2.
QQSR: the “one-hybrid fitness for binding NBS DNA” value was determined as 0.635.
Take FSRE: the “one-hybrid fitness for binding NBS DNA” value is not above 0.2.
As for RNLK, the “one-hybrid fitness for binding NBS DNA” value is not above 0.2.
As for SWAM, the “one-hybrid fitness for binding NBS DNA” value was not above 0.2.
The value for EAYQ was not above 0.2.
Consider SYNM, for which the “one-hybrid fitness for binding NBS DNA” value is not above 0.2.
The value for DLTA was not above 0.2; that for PYHG was not above 0.2.
Under YYKN stands not above 0.2.
Regarding DSAG, the “one-hybrid fitness for binding NBS DNA” value was not above 0.2.
As for QSAG, the “one-hybrid fitness for binding NBS DNA” value is not above 0.2.
For VFTT, the “one-hybrid fitness for binding NBS DNA” value is not above 0.2.
The value for WVSS was not above 0.2; that for AMVN was not above 0.2.
SEAL: the “one-hybrid fitness for binding NBS DNA” value is not above 0.2.
Regarding GHWG, the “one-hybrid fitness for binding NBS DNA” value is not above 0.2.
The value for RCRH was 0.46.
Regarding RCDG, the “one-hybrid fitness for binding NBS DNA” value is not above 0.2.
As for SPSE, the “one-hybrid fitness for binding NBS DNA” value was not above 0.2.
As for YEVT, the “one-hybrid fitness for binding NBS DNA” value is not above 0.2.
With FPQR, the “one-hybrid fitness for binding NBS DNA” value was not above 0.2.
In the case of QMDC, the “one-hybrid fitness for binding NBS DNA” value was not above 0.2.
The value for TRTN was not above 0.2; that for DTEV was not above 0.2.
The value for KLWA was not above 0.2; that for HYYT was not above 0.2; that for SSVW was not above 0.2.
With GRTM, the “one-hybrid fitness for binding NBS DNA” value is not above 0.2.
As to WIGS, the “one-hybrid fitness for binding NBS DNA” value was not above 0.2.
Regarding QGSG, the “one-hybrid fitness for binding NBS DNA” value was not above 0.2.
For the variant NTEV, the “one-hybrid fitness for binding NBS DNA” value was not above 0.2.
As for NVHS, the “one-hybrid fitness for binding NBS DNA” value is not above 0.2.
Take QAVM: the “one-hybrid fitness for binding NBS DNA” value is not above 0.2.
For the variant TGSW, the “one-hybrid fitness for binding NBS DNA” value was not above 0.2.
As for SVVW, the “one-hybrid fitness for binding NBS DNA” value is not above 0.2.
In the case of QSCG, the “one-hybrid fitness for binding NBS DNA” value was not above 0.2.
The value for IGSC was not above 0.2; that for RFEL was not above 0.2; that for QSAT was 0.395.
On to QNVR, for which the “one-hybrid fitness for binding NBS DNA” value is not above 0.2.
The value for YRQQ was not above 0.2.
As for LMGG, the “one-hybrid fitness for binding NBS DNA” value is not above 0.2.
Under TAYS stands not above 0.2; under YLYN, not above 0.2.
As for EIFC, the “one-hybrid fitness for binding NBS DNA” value is not above 0.2.
For SPHR, the “one-hybrid fitness for binding NBS DNA” value is not above 0.2.
On to RYIE, for which the “one-hybrid fitness for binding NBS DNA” value was not above 0.2.
Consider YVTC, for which the “one-hybrid fitness for binding NBS DNA” value was not above 0.2.
Take LWTC: the “one-hybrid fitness for binding NBS DNA” value is not above 0.2.
As for PYRL, the “one-hybrid fitness for binding NBS DNA” value is not above 0.2.
The value for QMRF was 0.303; that for DSFG was not above 0.2; that for EVAS was not above 0.2.
For NDIW, the “one-hybrid fitness for binding NBS DNA” value is not above 0.2.
In the case of SYWW, the “one-hybrid fitness for binding NBS DNA” value is not above 0.2.
Under NIKP stands not above 0.2; under MLAM, not above 0.2; under IMTS, not above 0.2.
VFHV: the “one-hybrid fitness for binding NBS DNA” value is not above 0.2.
Under CRYY stands not above 0.2; under DLLN, not above 0.2; under KGMA, not above 0.2.
In the case of REAA, the “one-hybrid fitness for binding NBS DNA” value is not above 0.2.
For the variant LPKT, the “one-hybrid fitness for binding NBS DNA” value was not above 0.2.
For the variant MTYL, the “one-hybrid fitness for binding NBS DNA” value was not above 0.2.
For HVTS, the “one-hybrid fitness for binding NBS DNA” value was not above 0.2.
For the variant TSRG, the “one-hybrid fitness for binding NBS DNA” value was not above 0.2.
Regarding HHDW, the “one-hybrid fitness for binding NBS DNA” value is not above 0.2.
Consider TQRI, for which the “one-hybrid fitness for binding NBS DNA” value was not above 0.2.
The value for LHPI was not above 0.2.
Regarding VNPT, the “one-hybrid fitness for binding NBS DNA” value is not above 0.2.
Under AYRC stands not above 0.2; under HRCY, not above 0.2.
Turning to KKSK, the “one-hybrid fitness for binding NBS DNA” value is not above 0.2.
For the variant LTTY, the “one-hybrid fitness for binding NBS DNA” value is not above 0.2.
As for QGPL, the “one-hybrid fitness for binding NBS DNA” value is not above 0.2.
Under CALG stands not above 0.2.
VENY: the “one-hybrid fitness for binding NBS DNA” value is not above 0.2.
For the variant QYQY, the “one-hybrid fitness for binding NBS DNA” value was not above 0.2.
As to LIHS, the “one-hybrid fitness for binding NBS DNA” value was not above 0.2.
Take FINV: the “one-hybrid fitness for binding NBS DNA” value is not above 0.2.
Consider SLVK, for which the “one-hybrid fitness for binding NBS DNA” value is not above 0.2.
As to YPTE, the “one-hybrid fitness for binding NBS DNA” value was not above 0.2.
With TMTG, the “one-hybrid fitness for binding NBS DNA” value was not above 0.2.
The value for FHAF was not above 0.2.
In the case of PSWW, the “one-hybrid fitness for binding NBS DNA” value is not above 0.2.
As to LLKG, the “one-hybrid fitness for binding NBS DNA” value is not above 0.2.
For QYAA, the “one-hybrid fitness for binding NBS DNA” value amounted to 0.237.
Take YYHT: the “one-hybrid fitness for binding NBS DNA” value is not above 0.2.
In the case of EAVY, the “one-hybrid fitness for binding NBS DNA” value is not above 0.2.
As to SRPT, the “one-hybrid fitness for binding NBS DNA” value was not above 0.2.
For the variant CMYE, the “one-hybrid fitness for binding NBS DNA” value is not above 0.2.
For the variant MNVL, the “one-hybrid fitness for binding NBS DNA” value was not above 0.2.
Consider PVIL, for which the “one-hybrid fitness for binding NBS DNA” value was not above 0.2.
Consider GFTG, for which the “one-hybrid fitness for binding NBS DNA” value was not above 0.2.
Regarding IQSS, the “one-hybrid fitness for binding NBS DNA” value was not above 0.2.
Regarding PLQM, the “one-hybrid fitness for binding NBS DNA” value was not above 0.2.
Under HYLA stands not above 0.2.
Take QGEE: the “one-hybrid fitness for binding NBS DNA” value is not above 0.2.
Under CLWF stands not above 0.2; under EVYT, not above 0.2.
Take AVRC: the “one-hybrid fitness for binding NBS DNA” value is not above 0.2.
Under TRSS stands not above 0.2.
